Data on 49 compounds can be found in PubChem BioAssay AID1159614 (National Center for Advancing Translational Sciences (NCATS), 2016).

The whole screen tested about 45,000 compounds, of which about 65 (0.1%) were called active. Calls follow the shape of the dose curve; as a rule, active = well fitted activation curve with a large enough effect; inconclusive = small, poorly fitted or top-dose-only effect; inactive = no such curve, though single readings can be large or run the other way. The list shows a part of the results.

This assay concerns the target Galactocerebrosidase (Homo sapiens) (UniProt P54803). Description: A Novel Cell-Based Assay to Identify Small Molecules for B -Galactocerebrosidase. Also: 0% is about no effect; nearly all actives have a fitted effect of over 65% in size. The following applies: 145M-Twi-hGALC-G270D cells (Twitcher mouse brain line with human GALC G270D), HMU-beta-Gal fluorescence, 48 h; series mostly up to 57.5 µM; activation: at the top concentration. Put shortly: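 Mutant human GALC (G270D), stably expressed in a Twitcher mouse brain cell line lacking endogenous GALC, is measured in live-treated cells via 6-hexadecanoylamino-4-methylumbelliferyl-β-galactoside hydrolysis (0.1 mM final, pH 5.2) with fluorescent detection.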
UniProt P54803, sequence (P54803 whole entry, looked up): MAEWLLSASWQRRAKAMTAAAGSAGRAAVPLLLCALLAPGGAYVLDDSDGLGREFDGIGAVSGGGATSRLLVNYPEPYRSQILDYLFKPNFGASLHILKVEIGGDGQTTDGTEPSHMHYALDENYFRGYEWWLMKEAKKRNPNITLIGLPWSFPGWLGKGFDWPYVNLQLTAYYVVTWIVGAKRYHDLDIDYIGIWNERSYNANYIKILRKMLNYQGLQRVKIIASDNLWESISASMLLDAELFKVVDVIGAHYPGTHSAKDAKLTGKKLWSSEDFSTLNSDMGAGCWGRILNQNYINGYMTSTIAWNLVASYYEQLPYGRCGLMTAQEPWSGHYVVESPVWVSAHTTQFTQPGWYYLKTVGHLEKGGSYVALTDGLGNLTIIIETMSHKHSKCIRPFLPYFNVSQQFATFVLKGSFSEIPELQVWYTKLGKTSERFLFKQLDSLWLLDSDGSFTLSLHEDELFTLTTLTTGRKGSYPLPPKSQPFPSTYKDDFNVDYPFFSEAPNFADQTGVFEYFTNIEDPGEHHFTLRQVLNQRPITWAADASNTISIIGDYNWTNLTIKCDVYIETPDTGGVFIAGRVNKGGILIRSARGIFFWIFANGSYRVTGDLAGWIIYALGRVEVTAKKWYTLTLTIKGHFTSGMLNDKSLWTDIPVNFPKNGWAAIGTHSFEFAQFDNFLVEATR
On to `Cc1cccc(CSc2ccc3nnc(CCNS(=O)(=O)c4ccccc4)n3n2)c1`, for which the “activation” value was inactive: -12.9%.

Regarding `COCCCNC(=O)C1CCN(C(=O)c2cc3sccc3n2Cc2ccc(Cl)cc2)CC1`, the “activation” value is inactive: -11.6%.

`CCOc1ccc(S(=O)(=O)NCCc2csc3nc(-c4cccc(C)c4)nn23)cc1`: the “activation” value is inactive: -12.5%.

Consider `Cc1ccc(C(=O)Nc2nnc(S(=O)(=O)N3CCCc4ccccc43)s2)cc1`, for which the “activation” value was inactive: -9%.

For `Fc1ccc(Nc2c(-c3c[nH]c4ccccc34)nc3ccccn23)cc1`, the “activation” value is inactive: -29.2%.

With `COc1cc(NS(=O)(=O)c2cc3c(cc2C)n(C)c(=O)c(=O)n3C)cc(OC)c1`, the “activation” value was inactive: 7.99%.

As to `O=S(=O)(c1ccc(Cl)cc1)N1CCC(c2ccncc2)CC1`, the “activation” value was inactive: -6.72%.

In the case of `O=C(Nc1nnc(S(=O)(=O)N2CCOCC2)s1)c1cccc(Br)c1`, the “activation” value was inactive: -19.3%.

Regarding `COc1cccc(C(=O)Nc2ccc(C(=O)OCc3cc(=O)n4cc(C)sc4n3)cc2)c1`, the “activation” value was inactive: -0.51%.

`Cc1nc2c(C(=O)NCCc3ccccc3)c[nH]n2c(=O)c1Cc1ccccc1F`: the “activation” value is inactive: -11.3%.

For `COc1ccc(-c2nc3c4ccccc4n(CC(=O)Nc4ccc(C(C)=O)cc4)c(=O)n3n2)cc1`, the “activation” value was inactive: -6.99%.

On to `Cc1ccccc1C(=O)NC1(C(F)(F)F)C(=O)Nc2c1c(=O)[nH]c(=O)n2CCc1ccccc1` (centres undefined), for which the “activation” value is inactive: -19%.

Consider `Cc1cc(C)cc(NC(=O)CSc2nc3c(cnn3-c3ccc(F)cc3)c(=O)[nH]2)c1`, for which the “activation” value is inactive: -21.3%.

In the case of `Cc1nc2ccc(S(=O)(=O)NCC(=O)Nc3ccc(C)c(Cl)c3)cc2s1`, the “activation” value is inactive: -4.73%.

On to `COc1cc(NC(=O)c2cc3cc4ccc(OC)c(Cl)c4nc3s2)cc(OC)c1`, for which the “activation” value was inactive: -18.6%.

As for `COc1cc(NC(=O)NCCn2nnc3cc(S(=O)(=O)N(C)C)ccc32)cc(OC)c1OC`, the “activation” value is inactive: -8.8%.

With `Cc1ccc(-c2cc3ncc4c(n3n2)-c2ccccc2OC4)cc1`, the “activation” value was inactive: -13.4%.

Turning to `CCC(Sc1ccc2nnc(CCNS(=O)(=O)c3ccc(OC)cc3)n2n1)C(=O)OC` (centres undefined), the “activation” value was inactive: -13.6%.

`COc1ccc(C(=O)NCc2ccc3c(c2)CCN3C(=O)c2cccc(C)c2)cc1OC`: the “activation” value is inactive: -17.2%.

`Cc1oc2ncnc(N3CCOCC3)c2c1C(=O)NCc1ccccc1`: the “activation” value is inactive: -7.38%.

On to `O=C(CCn1cccn1)Nc1cccc(C(F)(F)F)c1`, for which the “activation” value was inactive: -9.82%.

For `O=C(CCSCc1cnn(-c2ccccc2)c1-n1cccc1)NCc1ccc(Cl)cc1`, the “activation” value is inactive: -10.7%.

For the compound `Cc1ccc(-n2c(=O)c3c(cnn3C)n(CC(=O)Nc3cc(C)ccc3C)c2=O)cc1`, the “activation” value was inactive: -10.2%.

With `Cc1ccc(NC(=O)Cn2cc(C(=O)c3cccs3)c3ccccc32)cc1C`, the “activation” value was inactive: -6.65%.

For the compound `Cc1ccc(C(=O)c2cn(Cc3cccc(F)c3)c3nc(C)ccc3c2=O)cc1`, the “activation” value was inactive: -7.64%.

With `O=C1c2c(O)cccc2Cc2cccc(O)c21`, the “activation” value was inactive: -17.9%.

As to `Cc1cccc(NS(=O)(=O)c2ccc(Cl)c(C(=O)Nc3ccccc3C)c2)c1`, the “activation” value is inactive: -11.6%.

On to `CCCN(Cc1cccs1)C(=O)Nc1ccc(Br)c(C)c1`, for which the “activation” value was inactive: -10.6%.

Consider `CC(C)Cn1c(-c2ccc(S(=O)(=O)N3CCCC3)cc2)csc1=Nc1ccccc1`, for which the “activation” value was inactive: -20.5%.

Take `O=C(O)CCCC[P+](c1ccccc1)(c1ccccc1)c1ccccc1`: the “activation” value was inactive: -0.344%.

Take `Cc1nc2sccn2c(=O)c1S(=O)(=O)N1CCN(c2ccc(F)cc2)CC1`: the “activation” value is inactive: -6.8%.

As to `COc1ccc(CCNC(=O)CSc2nc3ccccc3nc2Cc2ccc(Cl)cc2)cc1OC`, the “activation” value is inactive: -4.3%.

With `O=C(Nc1nnc(S(=O)(=O)N2CCCC2)s1)c1ccc(F)cc1`, the “activation” value was inactive: -3.06%.

Regarding `COc1ccc(OC)c(-n2cnc3cc(C(=O)NC4CCCC4)ccc32)c1`, the “activation” value is inactive: -19.3%.

In the case of `O=C(NC1CC(=O)N(c2ccccc2)C1)c1cc2ccccc2o1` (centres undefined), the “activation” value is inactive: -5.18%.

Turning to `O=C(Nc1ccc(Cl)cc1)Nc1ccc(Cl)c(Cl)c1`, the “activation” value is inactive: -16.4%.

As for `Cc1oc(-c2ccccc2)nc1CNS(=O)(=O)c1ccc(Cl)cc1`, the “activation” value was inactive: -2.73%.

Take `CCCCOc1ccccc1NC(=O)Cn1c(-c2cncs2)nc2ccccc21`: the “activation” value was inactive: -1.35%.

With `CCOC(=O)c1cccc(NC(=O)c2cc3c(=O)n(Cc4cccnc4)ccc3nc2C)c1`, the “activation” value was inactive: -17.9%.

`COc1ccc(Nc2nc3c(S(=O)(=O)c4ccccc4)nnn3c3ccc(Cl)cc23)cc1OC`: the “activation” value was inactive: -12.2%.

In the case of `Cc1cccc(-c2nc(N3CCN(c4ccc(F)cc4)CC3)c3ccccc3n2)c1`, the “activation” value is inactive: 2.43%.

Take `CN1CCN(Cc2c(O)ccc3cc(-c4ccccc4)c(=O)oc23)CC1`: the “activation” value was inactive: -26.6%.

`CCOc1ccc(-c2cc(C(=O)NCc3ccc(OC)cc3)c3c(-c4ccc(F)cc4)[nH]nc3n2)cc1`: the “activation” value was inactive: -15.9%.

Take `CCOC(=O)c1cccc(Nc2nc(C(=O)OCC)nc3ccccc23)c1`: the “activation” value was inactive: 29.3%.

As to `CCCCCn1c(=O)[nH]c2cc(C(=O)N3CCN(c4ccccc4F)CC3)ccc2c1=O`, the “activation” value was inactive: -13.4%.

With `Cc1ccc(NC(=O)c2cc(-c3cccs3)on2)cc1C`, the “activation” value is inactive: -14%.

On to `CCN1CCN(CCCNC(=O)c2cnn(-c3ccc(C)cc3)c2C2CCN(C(=O)OC(C)(C)C)CC2)CC1`, for which the “activation” value is inactive: -12.2%.

For the compound `CCOC(=O)c1[nH]c2ccccc2c1NC(=O)c1ccc(OCC)cc1`, the “activation” value is inactive: -17.3%.

`Cc1ccc(-n2ncc3c(NCCCn4ccnc4)ncnc32)cc1`: the “activation” value is inactive: -17.9%.
